Source: the supplement of paper PMC11417369
± gives the standard deviation of the averaged measurements. The list shows a part of the results.

system: PfAP2-I AP2 domain 3 (GST-tagged); test: gcPBM binding intensity (ln(normalized median fluorescence intensity)); higher = stronger DNA binding
How it was run: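 GST-tagged P. falciparum DNA-binding domains produced in E. coli were incubated for 1 h on an Agilent 4 × 180k array of primer-extended double-stranded 36-bp intergenic genomic probes with negative controls. Binding intensity is the highest Masliner-normalised natural-log median intensity across replicate spots of either probe orientation, with bound protein detected by Alexa488 anti-GST antibody at 488 nm.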

Sequence	gcPBM binding intensity (ln)
ACCCAACATATGTGTACACAGAAAATAAATATAATA [CACACA_site5901]	8.61 ± 0.057
TTTTGTAATTCTCTTCATATAATTTATATATATATA [CACACA_negctrl_site1825]	9.14 ± 0.23
GTGTTTTTTTTAGATTGTACATATATATATATATAT [XGTACX_site4562]	9.63 ± 0.23
TTCCATATAATTACATGTACACATTTTGAATAATAT [XGTACX_site3692]	8.23 ± 0.3
ACAGATATACATAAAAAAAAAATAATTTTACATATA [CACACA_negctrl_site929]	7.25 ± 0.49
AGCACAGACGGACACACACACATATATATATATATA [CACACA_site4341]	9.41 ± 0.33
ATATATATGTATGTATGTACATATTTGAATTTATTT [XGTACX_site8470]	7.76 ± 0.41
ATTTGTTACACTAAATGTACATACATACATATATAT [XGTACX_site6175]	8.05 ± 0.44
TTATAAATTATAGGTACACACAAAAAAAAAAAGAAA [CACACA_site1327]	7.99 ± 0.5
ATAAACATATCAATATGTACATATTTTTGTTTGTAT [XGTACX_site7018]	7.69 ± 0.31
TTATAATAGTTAAATGTACACACTAACTACATGGAA [CACACA_site9070]	7.95 ± 0.35
AAACCACAAAATTTTTTATATATGACCAATACATAG [CACACA_negctrl_site277]	7.81 ± 0.54
ATTTATCAATAAAATGCACACACTGTAATATTATTA [CACACA_site3976]	8.94 ± 0.014
TAATATAATATATATACACACAAGAAATACAAAACG [CACACA_site1378]	8.25 ± 0.38
ACATAAATTTAATACACACACAAAGAAAAAAAAAAA [CACACA_site4088]	8.31 ± 0.62
ATATTATTATAATATACATATATATATATAATATAT [CACACA_negctrl_site480]	7.63 ± 0.15
TATATATATAATTAAAGTACATATAACCACAAAAAT [XGTACX_site7289]	8.31 ± 0.4
GGTCTTTTCAACACACGTACATAAAAATATTATACA [XGTACX_site5360]	8.6 ± 0.35
TAAACATATAGAGGGGTGCAAAGAATTGTAAAATTT	10.7 ± 0.18
TATATATTGATATGCACACCTATGTATTGATGTATA [CACACA_site1073]	8.99
AATAATAATAAATATACACACATCATACAATTAACA [CACACA_site3679]	7.74 ± 0.45
TATTTTTTTCTTACTACACACATATAGATGCTTTCC [CACACA_site7825]	7.97 ± 0.67
TTATAAAAATAATATCGTACAAATGACATAGATGAA [XGTACX_site2570]	7.66 ± 0.61

Sequence	gcPBM binding intensity (ln)
AGATATTTTATAATTACACACATGAGGTTATTTGAA [CACACA_site1999]	7.66 ± 0.41
CATATACATAAACACACACACACATAAATAAATATA [CACACA_site4864]	7.92 ± 0.23
ACATAAAATTGTTAAAAAATTGTATAAATAATACAT [XGTACX_negctrl_site557]	7.49 ± 0.53
GAAAAGCAGATAAATGTGCACATATATGTTTGTATA	9.71 ± 0.43
TATAGGTATATATAAGTGCAATATATATGTATATAC [GTGCAC_site9427]	10.9 ± 0.41
TATTATTTTTTAAATTGTACAATAAATTATAAAAGG [XGTACX_site1162]	7.89 ± 0.27
CAGCTCTTAAAAATTACACACATATACTCATATATA [CACACA_site5757]	7.63 ± 0.38
TTTTTTTCTTTATTAGCACACATAATATTATATATG [CACACA_site8841]	8.81 ± 0.45
TATATCATTATATAAACACACAATATGTTTTTTATA [CACACA_site3781]	7.42 ± 0.54
ACCTAAAAGGTATAATATATAAATAAAAAAAAAAAT [CACACA_negctrl_site134]	7.58 ± 0.66
TATTAATCTAATTCATAAAAAATGATCTATTTTGTT [CACACA_negctrl_site1035]	7.24 ± 0.62
AAAATGAACAGACACACACACATATTTATATTTATA [CACACA_site7182]	7.75 ± 0.42
TAGAATAATCTATAAACACACAAACACAACAAAAGA [CACACA_site7861]	8.21 ± 0.092
AACATTTGATAAGATACACACACAAGGAAAAAAATA [CACACA_site8004]	8.01 ± 0.67
ACAAATAAAAATATTACACACACTATTCTAGTGATA [CACACA_site6812]	7.55 ± 0.49
GACAAATTATTGTGTACACAATATTATTATATATAC [CACACA_site6020]	8.22 ± 0.41
CTTATGTTTTTTAAGTGTACATATTATACGTATTAT [XGTACX_site1176]	8 ± 0.13
TAAATATATATAATTACACACTTTTCTATAATATGA [CACACA_site711]	7.7 ± 0.47
TTAAGATATATAAAGAGTACACATAAGAGTAATGCT [XGTACX_site58]	7.88 ± 0.45
TATAATACATTATATTGTACTATATTATAATAAATT [XGTACX_site5934]	7.48 ± 0.33
ATATAATTACCATATGGTACACACATATATATATGT [XGTACX_site7393]	8.31 ± 0.47
ATATTACCCATATATGCACACATTGTAGTTATTTAT [CACACA_site2636]	9.58 ± 0.028
ATATCGTGTGCATTAACACACATTTATTTGAATAAA [CACACA_site7162]	10.9 ± 0.5

Sequence	gcPBM binding intensity (ln)
GATATATAAATAGATACACACATACATACATACATA [CACACA_site6260]	8.02 ± 0.7
AAAAAAAAAAAAAAAACACACATAAATAGCTCAAAT [CACACA_site3973]	8.78 ± 0.49
CACATACCCATACAAACACACATTATATATATATAT [CACACA_site4965]	9.205 ± 0.035
TACGATTAAAAAAAATGTACAGATTTTTATAGAATA [XGTACX_site6561]	7.54 ± 0.35
TATCATTTTGTATATAGTACATATATAAAATCGTTA [XGTACX_site3875]	7.54 ± 0.38
AAAAAAAATAAAAATAAAAATAAAAATAAAAATAAA [GTGCAC_negctrl_site437]	7.89 ± 0.83
AGTCATTAAATATAATGTACATGGAAAAACAGCTGA [XGTACX_site7944]	7.92 ± 0.71
GGAATATTTATACATACACACATATATTTATTTATA [CACACA_site6883]	7.77 ± 0.51
CAAGCACCCAGACACACACACACACCCACACCCACA [CACACA_site369]	7.83 ± 0.41
ATAAAAATAACATATAAACACACATATATATATATA [CACACA_site9267]	9.19 ± 0.53
ATGTAGACATAATGGGGTACAAAAAAAAAAAAAAAA [XGTACX_site881]	8.37 ± 0.74
AACAGATATATATGTAGTACATGTTCTAGATATTTT [XGTACX_site1208]	7.62 ± 0.49
AATAATTGTTAAAGGTGTACAATACGTATGTAAGAA [XGTACX_site1328]	8.7 ± 0.46
GTAAGAAACGGACACACACACATATATATATATATA [CACACA_site4593]	9.51 ± 0.4
AATATATTGCACCATTGGACCTGAATAATTCTTCCA [CACACA_negctrl_site1071]	11.8 ± 0.81
TAAATAATCATAGTTCTACACACCTATATTGCAAAA [CACACA_site8190]	7.76 ± 0.57
AAAAAAAAAAATTCCAGTACACACAATAATACTAAA [XGTACX_site5930]	7.75 ± 0.54
ATATATATAATATGATGTACTATTTTGATAAAAAAT [XGTACX_site3975]	8.23 ± 0.54
AATAATTAAATATATTTATAACAGGAAAATATTTAT [XGTACX_negctrl_site175]	7.75 ± 0.67
ATAAATTATATTCAAGTGCATGTAACTTATTATTAT	8.29 ± 0.32
ATATATATATAAATATAAATATATATATATATATAT [CACACA_negctrl_site1685]	9.21 ± 0.74
GTTATAGAAGCATTCACACACACACCGACATACACA [CACACA_site4914]	8.2 ± 0.16
ACAAAGAACTATAATACACACAAGAATATATTGGAT [CACACA_site7771]	7.82 ± 0.81

Sequence	gcPBM binding intensity (ln)
AAAAAAATCACATAATATACTTTATTTTATTTTGTA [GTGCAC_negctrl_site562]	7.17 ± 0.59
TATATATAGAAACACACACACACATATATATATATT [CACACA_site2539]	7.72 ± 0.52
TTATAAGATTTATGTACACACATATACACCCCTCTA [CACACA_site4562]	8.17 ± 0.28
GTTATAGAAGCATTCACACACACACGGACATACACA [CACACA_site6801]	8.27 ± 0.2
TTTTTTTATAAAAATGAACACACACCGATATATATA [CACACA_site9161]	8.34 ± 0.57
AATATATACATATGTATGCACTTTTTAATTATTTTT	9.18 ± 0.085
TATTATAATATATTTGTGCACATAATACCTCCGCTA [GTGCAC_site9570]	10.7 ± 0.18
ATATTTTTTATAAAATGTACTTATTATTAGAATATA [XGTACX_site2460]	7.75 ± 0.31
ACATATAAGTTATATACACACAATAATATGTAAATA [CACACA_site6766]	7.58 ± 0.33
TACAAAATATGGTAATAAAGTAGTTACATGAATTGG [XGTACX_negctrl_site522]	7.47 ± 0.77
TAGTAAGAATTACTGTGTACTAAAATATTAAAAAGT [XGTACX_site2578]	8.03 ± 0.57
AAATAGTCTTCTCTTGCATGTAACAAATATATATAT [TGCATGCA_site428]	8.89 ± 0.16
AATAAAAACAAACAAAAAAACAAATAAATAAATAAA [CACACA_negctrl_site483]	8.11 ± 0.51
TAACAAAATGTAAATAAACACACATATATATATATA [CACACA_site8352]	9.34 ± 0.27
TATTATATAATTTTAACACACAAGAATATAAACTTT [CACACA_site1363]	7.73 ± 0.62
TGAAGGAATACAGCTCGTACATGTGTAAAGAGATAA [XGTACX_site500]	7.86 ± 0.6
TAATTTAAATGATGTAGTACATATAAATATATCTAA [XGTACX_site262]	7.64 ± 0.3
AAAAAGAAAAAACTTACACACATATATACCCCCATG [CACACA_site4463]	9.335 ± 0.064
AACATTCTATGTTGCACACAAAGAGAAAAATTTATT [CACACA_site3995]	9.01 ± 0.028
ATGGAAATTTTATCATGTACATATACCGTTGAATAA [XGTACX_site5420]	7.92 ± 0.53
